Reference: patent US20260028401A1 (SHENGHE CHINA BIOPHARMACEUTICAL, published 2026)

Molecular target: T1, ILT4 on CHO-ILT4 cells (Manufacturer: Kang Yuan Bochuang, Cat: KC-1473) (UniProt Q8N423 22-597, limits assumed)
T1 construct: whole, on cells; also called ILT4 cell line
Assay: flow cytometry on CHO-ILT4 cells, 7-point 5-fold titration, anti-human IgG Fc detection

T1 sequence (Q8N423 22-597 limits assumed): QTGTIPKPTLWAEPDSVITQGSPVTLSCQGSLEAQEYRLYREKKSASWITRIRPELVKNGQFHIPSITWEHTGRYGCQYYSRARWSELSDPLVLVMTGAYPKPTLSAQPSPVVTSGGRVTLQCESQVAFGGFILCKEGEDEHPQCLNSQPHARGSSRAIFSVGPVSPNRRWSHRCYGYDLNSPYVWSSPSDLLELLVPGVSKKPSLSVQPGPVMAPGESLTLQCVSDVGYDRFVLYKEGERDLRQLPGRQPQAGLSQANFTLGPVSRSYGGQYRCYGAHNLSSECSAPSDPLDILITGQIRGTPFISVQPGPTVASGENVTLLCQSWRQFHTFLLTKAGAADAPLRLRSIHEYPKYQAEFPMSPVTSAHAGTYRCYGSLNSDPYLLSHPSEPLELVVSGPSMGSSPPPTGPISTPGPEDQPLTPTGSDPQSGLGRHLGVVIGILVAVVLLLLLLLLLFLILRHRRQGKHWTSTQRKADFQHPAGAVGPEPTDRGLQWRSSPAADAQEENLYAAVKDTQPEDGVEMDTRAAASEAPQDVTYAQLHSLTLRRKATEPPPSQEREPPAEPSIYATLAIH

EC50: 0.057 µg/mL
B1: the antibody (chimeric antibody) of the present invention (VHH SEQ ID NO: 4 and Fc SEQ ID NO: 7) (Fc fusion)
chain: EVQLVESGGGLGQAGGSLRLSCVVSGRTFSRYAMGWFRQAPGKEREFVAAISWSPGDITTYADSVRGRFTISRDNAKNTVYLQMNSLKPEDTAVYYCAADPTAWGTQYDYWGQGTQVTVSS[human IgG4 Fc with S228P (EU numbers) not shown]
notes: VHH-Fc; Detected with an anti-human IgG Fc-gamma secondary antibody; The control was an irrelevant IgG4
